Source: patent US7524505B2, “Compositions and methods for dual therapies of hair graying and balding in follicular delivery systems” (Schweitzer Biotech Company Ltd., priority 2005, dated 2009)

How the values were obtained:
[1] = tested on: graying animal model; test: Graying animal model in vivo, topical application (hair color, melanin level); parameters: species or system mice (hybrid of C3H and BALB/C); details: HSCF packaged in liposome
Text: The graying animal model used to simulate human hair graying and to test the effects of the compositions on hair pigmentation in vivo, is established by the F1 generation. It is derived from the hybrid of the C3H and BALB/C mice, which grow white hair after the treatment with the whiting gel, containing 1-20% hydroquinone and 1-20% glycolic acid. In fact, tyrosinase has been proven to dominantly control the synthesis pathway of melanin. When human ages, the tyrosinase genes in melonocytes gradually become depleted, so white hair grows as a result. We establish a kind of mice with the heterologous tyrosinase gene (Tyr+/Tyr−), the activity of which is easy to inhibit by the treatment of whiting agent like hydroquinone. The BALB/C mice is in white color because of homologous depletion of tyrosinase gene (Tyr−/Tyr−) and the C3H strain with (Tyr+/Tyr+) appear in brown color. Heterologous tyrosinase gene (Tyr+/Tyr−) of the F1 generation is to simulate the genotype of human aging in hair follicles, which is much easier to induce tyrosinase depletion or inactivation to appear in white color. After the treatment with the whiting gel for 7 days, the F1 generation starts to grow white hair. […] The standard curve of melanin is measured at first by the commercial product of melanin.

[2] = tested on: hair follicle organ; test: Hair follicle organ cultured in vitro, length of re-grown hair; type: cell-based, mice (F1 generation of C3H mated with BALB/C); details: hair follicles cultured 12 days in the formula of amino acids and vitamins; length measured at Day 12; FIG. 7
Text: At the age of 8 weeks, the F1 generation of C3H mated with BALB/C supplies the hair follicle material. By plucking the whiskers by depilating forceps, an anagen phase of the hair follicle can be induced. After three days of whisker plucking, the mice were killed and the hair follicle samples were harvested. Each selected hair follicle was then carefully isolated from the subcutaneous fat and the connective tissue surrounding the capsule was removed under a stereo-dissection microscope with fine forceps. We picked up the intact hair follicles with average size for the next step of culture, and which is in the early anagen stage, which is determined by the hair follicle conformation. Before culture, the hair fibre was first cut out at the surrounding line of the hair follicle to make the length measurement of hair growth much more easily in the future (FIG. 7). […]
Ten hair follicles were cultured in each treatment. […] The length of the hair growth beginning from the cutting site was measured at Day 12. […]
Hair follicle was observed by the Inverted microscope (Lieca DM, IL) and captured with the image by CCD connecting with a computer. The hair length was analyzed with the computer software: Northern Eclipse image system. The data of hair length were analyzed with the Duncan's new multiple range test by one way analysis of variance (ANOVA) using the SigmaStat program (2002).

[3] = tested on: AGA animal model; test: AGA (androchronogenetic alopecia) animal model in vivo, topical application; parameters: species or system B6CBAF1/j hybrid mouse; details: topical liposome application, testosterone-induced balding mice, versus balding control; 14 days; FIG. 10
Text: The spontaneous mutation of C57BL/6J mouse in our lab has an appearance of hair balding with homologous jb/jb genes (FIG. 10). We chose the mutant mice as the female parent. The androchronogenetic alopecia (AGA) animal model was then established by the hybrid of C57BL/6J female×CBA/J male. This hybrid is called the B6CBAF1/j hybrid mouse. […] The female of the hybrid is more sensitive to testosterone than male mice, and therefore is appropriate for use as the human AGA balding mimic^18).

B1: HSCF: the two growth factors SCF and IGF-I, either the combination (HSCF-I) or the recombinant protein (HSCF-II) (protein)
chain: MKKTQTWILTCIYLQLLLSNPLVKTEGICRNRVTNNVKDVTKLVANLPKDYMITLKYVPGMDVLPSHCWISEMVVQLSDSLTDLLDKFSNISEGLSNYSIIDKLVNIVDDLVECVKENSSKDLKKSFKSPEPRLFTPEEFFRIFNRSINAFKDFVVASETSDCVVSSTLSGGGGKLGGGGSGG[about 80 residues not shown]
modifications: Human HSCF-II
hair color of the re-grown dorsal hair ([1]; topical once a day for two weeks, after whiting gel, versus graying control, FIG. 8): much darker than the graying mice of the control
content of melanin in the hair shaft ([1]; topical, versus control, P<0.05, OD 475 nm, FIG. 9): higher
effect on hair re-growth (hair length) [2]: better than that of SCF and IGF-I each
hair re-growth of hairless follicles [3]: enough to stimulate the hair growth
